# Results reported in PubChem BioAssay AID1346428 (National Center for Advancing Translational Sciences (NCATS), 2018).
# “And” between values parts separate entries of the source, which are not always exact repeats. Equal entries are not always repeated. Screen size: about 48,000 compounds; about 1,200 (2.5%) were called active. Another 2% or so got no clear call; they are omitted.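 The calls were made as follows: active = activation of at least 60% and not above a set upper limit (about 1 call in 100 departs from these limits); inconclusive = activation of 40% to 60%, or above that upper limit; inactive = activation under 40%.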 This is one part of the list.
# Biological target: Probable G-protein coupled receptor 32 (Homo sapiens) (UniProt O75388)
# UniProt O75388, sequence (O75388 whole entry, looked up): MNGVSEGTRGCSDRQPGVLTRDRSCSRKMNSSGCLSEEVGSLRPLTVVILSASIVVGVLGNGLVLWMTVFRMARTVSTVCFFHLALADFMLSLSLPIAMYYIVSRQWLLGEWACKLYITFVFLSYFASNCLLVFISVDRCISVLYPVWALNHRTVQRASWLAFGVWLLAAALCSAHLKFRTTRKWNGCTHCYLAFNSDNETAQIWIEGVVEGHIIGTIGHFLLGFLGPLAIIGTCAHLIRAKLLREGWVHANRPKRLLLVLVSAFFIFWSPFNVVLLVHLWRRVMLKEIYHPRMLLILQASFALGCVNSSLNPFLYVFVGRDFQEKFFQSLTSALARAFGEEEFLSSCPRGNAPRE
# Assay: qHTS for Agonists of Human Resolvin D1 Receptor DRV1; also: 0% is about no effect
# Settings: CHO-K1 GPR32 beta-arrestin PathHunter luminescence, 90 min; at 76.9 µM; stronger effect = higher value; zero percent set by DMSO-only wells
# Summary of the method: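 Readings come from a cell-based beta-arrestin complementation format: CHO-K1 GPR32 stable cells (2,500/well) treated 90 min with compounds, then beta-Gal substrate added for 1 h before chemiluminescence imaging.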
row,SMILES,activation
1,Cc1c(Cl)cccc1NS(=O)(=O)c1ccc(-c2cnc(C3CC3)o2)cc1,inactive: -4.23%
2,CCN(C(=O)Cn1c(=O)n(-c2ccccc2)c(=O)c2ccc(C(=O)NCc3ccc4c(c3)OCO4)cc21)c1cccc(C)c1,inactive: -3.07%
3,O=C(CCn1c(=O)c2cccn2c2cccnc21)Nc1ccccc1C(F)(F)F,inactive: -8.07%
4,CCC(=O)N1c2ccccc2CC1C(=O)NCc1cc(OC)ccc1OC (stereo not drawn),inactive: 21%
5,Cc1cc(C)cc(OCC(=O)Nc2c(C(=O)c3ccccc3)oc3ccccc23)c1,inactive: -9.14%
6,CCCCn1cnc2cc(NCc3ccc(OCC)cc3)ccc21,inactive: -55.2%
7,CC(C)c1ccc(NC(=O)c2cc(S(=O)(=O)N(C)C3CCCCC3)ccc2F)cc1,inactive: -22.4%
8,C[C@@H](NC(=O)/C(C#N)=C/c1ccc(O)c(O)c1)c1ccccc1,inactive: -23.3%
9,CCOc1ccc(NC(=O)c2cc(S(=O)(=O)N3CCc4ccccc43)ccc2F)cc1,inactive: -14.2%
10,CCCCCCCCCCCCSCCOCCO,inactive: -7.19%
11,O=C(c1ccco1)N(Cc1cccnc1)c1nc2c(F)cc(F)cc2s1,inactive: -20%
12,CCc1ccccc1NC(=O)Cn1cc(S(=O)(=O)N2CCCC2)c(S(=O)(=O)N2CCCC2)c1,inactive: 1.28%
13,CCOCCCNC(=O)C(c1ccccc1)N(Cc1ccc2c(c1)OCO2)C(=O)c1ccc(NC(C)=O)cc1 (stereo not drawn),inactive: -8.9%
14,Cc1ccccc1CNC(=O)c1ccc2nc(SCc3ccc(F)cc3)n(C)c2c1,inactive: -6.27%
15,COc1ccccc1NC(=O)CSc1nncn2c1cc1sccc12,inactive: -2.57%
16,C[C@]12CC[C@@H]3c4ccc(O)cc4C[C@@H](CCCCCCCCCS(=O)CCCC(F)(F)C(F)(F)F)[C@H]3[C@@H]1CC[C@@H]2O (stereo partly drawn),inactive: -9.6% and inactive: -27.1%
17,CCCOc1ccc(-c2cccc(NS(=O)(=O)c3ccccc3)c2)nn1,inactive: -10.5%
18,Cc1ccccc1CN1C(=O)c2ccccc2S(=O)c2ccc(C(=O)NCc3ccc(Cl)cc3)cc21 (stereo not drawn),inactive: -23.3%
19,CCc1ccccc1NC(=O)CN(c1ccccc1)S(=O)(=O)c1ccsc1C(=O)OC,inactive: -11.1%
20,O=C(NCc1ccc2c(c1)OCO2)c1ccc2c(c1)N(Cc1ccccc1F)C(=O)c1ccccc1S2,inactive: -18.4%
21,Cc1ccc2cccc(NC(=O)c3ccc(OC(C)C)cc3)c2n1,inactive: -8.49%

row,SMILES,activation
1,Cc1c(Cl)cccc1NC(=O)c1ccc2c(c1)CCCN2S(C)(=O)=O,inactive: 20.5%
2,CC(C)c1ccc(OCC(=O)NCCS(=O)(=O)N2CCN(c3ccc(F)cc3)CC2)cc1,inactive: -2.61%
3,Cc1ccc(CNC(=O)Nc2cc(C(=O)NCc3ccc(C(C)C)cc3)ccc2N2CCCC2)cc1,inactive: -13.2%
4,CC(C)(C)OC(=O)N1CCC(c2c(C(=O)NCCN3CCc4ccccc4C3)cnn2-c2ccc(F)cc2)CC1,inactive: -5.58%
5,CCCCOc1ccc(C(=O)Nc2ccc(-c3cc4ccccc4oc3=O)cc2)cc1,inactive: 1.08%
6,Cc1cc(C)cc(-n2c(C)cc(C(=O)C(=O)Nc3ccccc3F)c2C)c1,inactive: -10.2%
7,CCN1C(=O)c2ccccc2Sc2ccc(NC(=O)N3CCN(c4cc(C)ccc4C)CC3)cc21,inactive: -9.13%
8,CCOC(=O)c1ccc(NC(=O)C(CC)Sc2nc3ccncc3[nH]2)cc1 (stereo not drawn),inactive: 15.9%
9,COc1ccccc1C(=O)N1c2ncnn2C2(CCCCC2)[C@@H]2CCCC[C@@H]21,inactive: -4.42%
10,COc1ccc(Cn2c(C(=O)O)c(CNC3CCCC3)c3ccc(OC)cc32)cc1,inactive: 19.6%
11,CCOc1ccc(-c2nn(-c3ccccc3)cc2C2NC(=O)NC(C)=C2C(=O)OC(C)C)cc1 (stereo not drawn),inactive: -0.713%
12,CSc1nc(Nc2ccc(F)cc2)cc(-c2ccccc2)n1,inactive: 30.9%
13,CCOc1ccc(CC(=O)NCCc2sc3nc(-c4ccc(F)cc4)nn3c2C)cc1,inactive: -28.7%
14,Cc1ccc2ncc(C(=O)c3ccc(C)c(C)c3)c(S(=O)(=O)c3ccc(F)cc3)c2c1,inactive: -14.2%
15,Cc1c(C)n(CCN(C)C)c2ccc(C(=O)OCCN(C)C)cc12,inactive: 8.54%
16,CC(C)N(Cc1nc(-c2ccc(Cl)cc2)no1)C(=O)c1ccc(C(C)(C)C)cc1,inactive: -2.3%
17,Cc1ccccc1Cn1c(SCc2ccc(C(=O)NC3CCCCC3)cc2)nc2ccncc21,inactive: -1.65%
18,Cc1nc(SCc2cccc(Cl)c2)nc2c1CCCC2,inactive: -0.942%
19,Cc1ccc(CNc2nnc(C)c3nnn(Cc4ccc(F)cc4)c23)cc1,inactive: 10.1%
20,COc1cc(NC(=O)Cn2c(=O)cc(C)c3c(C)nn(-c4ccc(C)cc4)c32)cc(OC)c1,inactive: 7.4%
21,CC(=O)N1c2ccc(S(=O)(=O)N3CCCCCC3)cc2CC1C(=O)NCc1cccc(C)c1 (stereo not drawn),inactive: -4.98%

row,SMILES,activation
1,CCOc1ccc(-c2cc3nc(C4CCN(C(=O)OC(C)(C)C)CC4)c(C(=O)Nc4cccc(CC)c4)cn3n2)cc1,inactive: -3.56%
2,Fc1ccc(NCc2ccccc2-c2nnc(-c3ccccc3Cl)o2)cc1,inactive: -18.6%
3,CC1=C(c2ccc(Cl)cc2)S(=O)(=O)N=C1N1CCN(c2cccc(C)c2C)CC1,inactive: -3.31%
4,Cc1cccc(NC(=O)CSc2nc3ccc(NC(=O)c4ccccc4)cc3s2)c1,active: 60.2%
5,COc1cccc(CN2C(=O)c3ccccc3Sc3ccc(C(=O)OCc4ccco4)cc32)c1,inactive: -12.5%
6,CC(C)(C)c1ccc(-c2nc(NC(=O)CSc3ncnc4sc5c(c34)CCCC5)ns2)cc1,inactive: -22.7%
7,Cc1ccc(-n2ccn(CC(=O)NCCc3ccccc3)c(=O)c2=O)cc1C,inactive: 4.08%
8,CCCCOc1ccc(C(=O)N(Cc2ccc(N(C)C)cc2)Cc2ccco2)cc1,inactive: -41.2%
9,CCSc1nc2n(n1)C(c1ccc(Cl)cc1Cl)C(C(=O)Nc1ccccc1C)=C(C)N2 (stereo not drawn),inactive: 36%
10,COc1ccc(N2CC(NC(=O)/C=C\c3ccc4c(c3)OCO4)CC2=O)cc1OC (stereo not drawn),inactive: -0.278%
11,CCc1ccc(NC(=O)CSc2nccn2-c2ccc(F)cc2)cc1,inactive: -7.82%
12,COc1ccc(NC(=O)CN(C)S(=O)(=O)c2ccc3c(c2)CCCN3C(C)=O)cc1,inactive: -7.88%
13,O=S(=O)(Nc1cccc(C(F)(F)F)c1)c1ccc(-c2cnc(C3CC3)o2)cc1,inactive: -34.6%
14,Cc1ccc(-n2nnc(-c3nc(-c4cccs4)no3)c2N)c(C)c1,inactive: -1.41%
15,CC(C)c1ccc(OCC(=O)Nc2c(C(=O)c3ccc(F)cc3)oc3ccccc23)cc1,inactive: 16.3%
16,COc1ccc(S(=O)(=O)c2c(C(=O)c3ccc(C)c(C)c3)cnc3ccc(F)cc23)cc1,inactive: -23.1%
17,COc1ccccc1CNC(=O)Cn1ncn2c(cc3sccc32)c1=O,inactive: -5.21%
18,Cc1ccc(Nc2c(-c3ccsc3)nc3c(C)cccn23)cc1,inactive: 7.24%
19,CCCCCSc1nc2sc3c(c2c(=O)n1-c1ccc(OC)cc1)CCN(C(C)=O)C3,inactive: 47.2%
20,COc1ccccc1NC(=O)CC(c1cc(OC)c(OC)c(OC)c1)N1Cc2ccccc2C1=O (stereo not drawn),inactive: 15.1%
21,COc1ccc(S(=O)(=O)NCc2cccn2Cc2cccc(C)c2)cc1,inactive: -8.53%

row,SMILES,activation
1,CC(C)NCC(O)COc1cccc2ccccc12 (stereo not drawn),inactive: 1.42%
2,COc1cc2c(cc1NC(=O)COc1ccc(Cl)cc1Br)oc1ccccc12,inactive: 0.692%
3,CCOC(=O)CSc1nnc2n(-c3ccccc3)c(=O)c3c4c(sc3n12)CC(C(C)(C)C)CC4 (stereo not drawn),inactive: -41.5%
4,Cc1c(C)n(C)c2ccc(C(=O)NCc3cccc(F)c3)cc12,inactive: -17.1%
5,Cn1ccc2c(OCC(=O)NCc3ccccc3)cccc2c1=O,inactive: 8%
6,COCCNC(=O)c1c[nH]c2ccc(S(=O)(=O)Nc3ccc(F)cc3F)cc2c1=O,inactive: -12.8%
7,COc1ccccc1CNS(=O)(=O)c1ccc(-c2cnc(C3CC3)o2)cc1,inactive: 18.2%
8,CCc1ccccc1NC(=O)CCOc1ccccc1,inactive: 6.82%
9,Cc1ccc(N2CC(NC(=O)c3cc4ccccc4o3)CC2=O)cc1C (stereo not drawn),inactive: -9.81%
10,CC(C)c1nn2c(=O)cc(COC(=O)c3cccc(NC(=O)c4cccs4)c3)nc2s1,inactive: -24.9%
11,CCCOc1ccc(-c2nonc2NC(=O)c2cc(OC)c(OC)c(OC)c2)cc1OCCC,inactive: -18.5%
12,CCc1ccc(C2=NN(CCC(=O)NCCc3ccc(OC)c(OC)c3)C(=O)CC2)cc1,inactive: -16.2%
13,Cc1ccccc1C(=O)Nc1ccc2nc(SCC(=O)N3CCc4ccccc43)sc2c1,inactive: 11.4%
14,COc1ccc(CNC(=O)c2ccc3c(c2)N(Cc2ccc(C)cc2)CCS3)cc1,inactive: -20.3%
15,COc1ccc(CSc2nc3ccncc3n2CC(=O)Nc2ccc(C)c(F)c2)cc1,inactive: -5.47%
16,CCc1ccccc1NC(=O)Cn1c(=O)n(-c2ccc(CC(=O)NCC3CCCO3)cc2)c(=O)c2ccccc21 (stereo not drawn),inactive: -15.7%
17,CCOC(=O)c1cnc2nc(NCc3cccc(Br)c3)[nH]n2c1=O,inactive: 25.6%
18,Cc1cc(C)cc(-n2ccn(Cc3ccccc3C)c(=O)c2=O)c1,inactive: -26.3%
19,COc1ccc(CCNC(=O)CCS(=O)(=O)c2cc(Br)cc3c2N(C(C)=O)CC3)cc1OC,inactive: 1.12%
20,Cc1cc(C)cc(NC(=O)C2CCCN2S(=O)(=O)c2ccc3c(c2)CCCC(=O)N3)c1 (stereo not drawn),inactive: 48.8%
